Reference: the supplement of paper PMC8728848
This is one part of the list.

How the values were obtained:
Assay in all cases: glycan array binding signal (z-score within array); higher = stronger binding
Details in all cases: glycan notation: IUPAC condensed, linker removed
[1] = biological target: Neu5Ac(a2-3)Gal(b1-4)GlcNAc(b1-3)Gal(b1-4)GlcNAc(b1-3)Gal(b1-4)GlcNAc
Procedure, shortened: (§1)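 From the Consortium for Functional Glycomics database, 3228 arrays were curated, keeping only those whose protein sequence was available. Binding is given as a within-array Z-score averaged across arrays sharing a protein sequence and across linkers. Negative Z-scores can be read as non-binding.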

[2] = biological target: Neu5Ac(a2-3)Gal(b1-4)GlcNAc(b1-3)Gal(b1-4)GlcNAc(b1-3)Gal(b1-4)GlcNAc(b1-2)Man(a1-3)[Neu5Ac(a2-3)Gal(b1-4)GlcNAc(b1-3)Gal(b1-4)GlcNAc(b1-3)Gal(b1-4)GlcNAc(b1-2)Man(a1-6)]GalNAc
Procedure, shortened: as §1

[3] = biological target: Neu5Ac(a2-3)Gal(b1-4)GlcNAc(b1-3)Gal(b1-4)GlcNAc(b1-3)GalNAc
Procedure, shortened: as §1

[4] = biological target: Neu5Ac(a2-3)Gal(b1-4)GlcNAc(b1-3)Gal(b1-4)GlcNAc(b1-3)[Neu5Ac(a2-3)Gal(b1-4)GlcNAc(b1-3)Gal(b1-4)GlcNAc(b1-6)]GalNAc
Procedure, shortened: as §1

[5] = biological target: Neu5Ac(a2-3)Gal(b1-4)GlcNAc(b1-3)Gal(b1-4)GlcNAc(b1-6)[Gal(b1-3)]GalNAc
Procedure, shortened: as §1

[6] = biological target: Neu5Ac(a2-3)Gal(b1-4)GlcNAc(b1-3)Gal(b1-4)[Fuc(a1-3)]GlcNAc
Procedure, shortened: as §1

[7] = biological target: Neu5Ac(a2-3)Gal(b1-4)GlcNAc(b1-3)GalNAc
Procedure, shortened: as §1

[8] = biological target: Neu5Ac(a2-3)Gal(b1-4)GlcNAc(b1-3)[Neu5Ac(a2-3)Gal(b1-4)GlcNAc(b1-6)]GalNAc
Procedure, shortened: as §1

[9] = biological target: Neu5Ac(a2-3)Gal(b1-4)GlcNAc(b1-6)GalNAc
Procedure, shortened: as §1

[10] = biological target: Neu5Ac(a2-3)Gal(b1-4)GlcNAc(b1-6)[Gal(b1-3)]GalNAc
Procedure, shortened: as §1

[11] = biological target: Neu5Ac(a2-3)Gal(b1-4)GlcNAc(b1-6)[Neu5Ac(a2-3)Gal(b1-3)]GalNAc
Procedure, shortened: as §1

[12] = biological target: Neu5Ac(a2-3)Gal(b1-4)GlcNAc6S
Procedure, shortened: as §1

[13] = biological target: Neu5Ac(a2-3)Gal(b1-4)[Fuc(a1-3)]GlcNAc
Procedure, shortened: as §1

[14] = biological target: Neu5Ac(a2-3)Gal(b1-4)[Fuc(a1-3)]GlcNAc(b1-2)Man
Procedure, shortened: as §1

[15] = biological target: Neu5Ac(a2-3)Gal(b1-4)[Fuc(a1-3)]GlcNAc(b1-3)Gal
Procedure, shortened: as §1

[16] = biological target: Neu5Ac(a2-3)Gal(b1-4)[Fuc(a1-3)]GlcNAc(b1-3)Gal(b1-4)GlcNAc
Procedure, shortened: as §1

[17] = biological target: Neu5Ac(a2-3)Gal(b1-4)[Fuc(a1-3)]GlcNAc(b1-3)Gal(b1-4)[Fuc(a1-3)]GlcNAc(b1-3)Gal(b1-4)[Fuc(a1-3)]GlcNAc
Procedure, shortened: as §1

[18] = biological target: Neu5Ac(a2-3)Gal(b1-4)[Fuc(a1-3)]GlcNAc(b1-3)GalNAc
Procedure, shortened: as §1

[19] = biological target: Neu5Ac(a2-3)Gal(b1-4)[Fuc(a1-3)]GlcNAc(b1-6)[Gal(b1-3)]GalNAc
Procedure, shortened: as §1

[20] = biological target: Neu5Ac(a2-3)Gal(b1-4)[Fuc(a1-3)]GlcNAc(b1-6)[Neu5Ac(a2-3)Gal(b1-3)]GalNAc
Procedure, shortened: as §1

[21] = biological target: Neu5Ac(a2-3)Gal(b1-4)[Fuc(a1-3)]GlcNAc6S
Procedure, shortened: as §1

[22] = biological target: Neu5Ac(a2-3)Gal6S(b1-4)GlcNAc
Procedure, shortened: as §1

[23] = biological target: Neu5Ac(a2-3)Gal6S(b1-4)[Fuc(a1-3)]GlcNAc
Procedure, shortened: as §1

Neu5Ac(a2-3)GalNAc = biological target: Neu5Ac(a2-3)GalNAc
Procedure, shortened: as §1

[24] = biological target: Neu5Ac(a2-3)GalNAc(b1-4)GlcNAc
Procedure, shortened: as §1

[25] = biological target: Neu5Ac(a2-3)[GalNAc(b1-4)]Gal(b1-4)Glc
Procedure, shortened: as §1

[26] = biological target: Neu5Ac(a2-3)[GalNAc(b1-4)]Gal(b1-4)GlcNAc
Procedure, shortened: as §1

[27] = biological target: Neu5Ac(a2-3)[GalNAc(b1-4)]Gal(b1-4)GlcNAc(b1-3)GalNAc
Procedure, shortened: as §1

[28] = biological target: Neu5Ac(a2-3)[Neu5Ac(a2-6)]GalNAc
Procedure, shortened: as §1

Neu5Ac(a2-6)Gal = biological target: Neu5Ac(a2-6)Gal
Procedure, shortened: as §1

[29] = biological target: Neu5Ac(a2-6)Gal(b1-3)GlcNAc(b1-3)[Gal(b1-4)GlcNAc(b1-6)]Gal(b1-4)Glc
Procedure, shortened: as §1

Neu5Ac(a2-6)Gal(b1-4)Glc = biological target: Neu5Ac(a2-6)Gal(b1-4)Glc
Procedure, shortened: as §1

[30] = biological target: Neu5Ac(a2-6)Gal(b1-4)GlcNAc
Procedure, shortened: as §1

[31] = biological target: Neu5Ac(a2-6)Gal(b1-4)GlcNAc(b1-2)Man
Procedure, shortened: as §1

[32] = biological target: Neu5Ac(a2-6)Gal(b1-4)GlcNAc(b1-2)Man(a1-3)Man(b1-4)GlcNAc(b1-4)GlcNAc
Procedure, shortened: as §1

[33] = biological target: Neu5Ac(a2-6)Gal(b1-4)GlcNAc(b1-2)Man(a1-3)[Gal(b1-4)GlcNAc(b1-2)Man(a1-6)]Man(b1-4)GlcNAc(b1-4)GlcNAc
Procedure, shortened: as §1

[34] = biological target: Neu5Ac(a2-6)Gal(b1-4)GlcNAc(b1-2)Man(a1-3)[GlcNAc(b1-2)Man(a1-6)]Man(b1-4)GlcNAc(b1-4)GlcNAc
Procedure, shortened: as §1

[35] = biological target: Neu5Ac(a2-6)Gal(b1-4)GlcNAc(b1-2)Man(a1-3)[GlcNAc(b1-4)][Neu5Ac(a2-6)Gal(b1-4)GlcNAc(b1-2)Man(a1-6)]Man(b1-4)GlcNAc(b1-4)GlcNAc
Procedure, shortened: as §1

B1: Epa3to1 (Candida glabrata) (protein)
chain: MGSSHHHHHHSSGLVPRGSHMKRELSSQNPFGYPIGCSPQDVAIIPGLTMELYSYPIVSGTPPNCYDASYVDPEYPRTGYLKRKMVGKSTGVTGNLNYKYSVEKACMVKYGNLPAGYNYNEPLTVSNFTMILYGYFKAQTTGLHTFFVNADDLLYINFGAGNAFDCCKREDSKTKLGEYVAYDIWHVDSSKNKVSLFLEKDLYYPIRMFFNNREYDSSLDLSFSVNGATDQISDFSGYLYSVPDQPDTCPAHIGYDTTCR
[1]
  glycan array binding signal (z-score): -0.391
[2]
  glycan array binding signal (z-score): 0.158
[3]
  glycan array binding signal (z-score): 0.164
[4]
  glycan array binding signal (z-score): -0.223
[5]
  glycan array binding signal (z-score): -0.181
[6]
  glycan array binding signal (z-score): -0.99
[7]
  glycan array binding signal (z-score): -0.273
[8]
  glycan array binding signal (z-score): 0.192
[9]
  glycan array binding signal (z-score): -0.321
[10]
  glycan array binding signal (z-score): 0.66
[11]
  glycan array binding signal (z-score): -0.382
[12]
  glycan array binding signal (z-score): -0.83
[13]
  glycan array binding signal (z-score): -0.596
[14]
  glycan array binding signal (z-score): -0.113
[15]
  glycan array binding signal (z-score): -0.134
[16]
  glycan array binding signal (z-score): -0.257
[17]
  glycan array binding signal (z-score): -1.17
[18]
  glycan array binding signal (z-score): 0.21
[19]
  glycan array binding signal (z-score): -0.151
[20]
  glycan array binding signal (z-score): 0.091
[21]
  glycan array binding signal (z-score): 0.029
[22]
  glycan array binding signal (z-score): -0.262
[23]
  glycan array binding signal (z-score): -1.06
Neu5Ac(a2-3)GalNAc
  glycan array binding signal (z-score): -0.62
[24]
  glycan array binding signal (z-score): -0.962
[25]
  glycan array binding signal (z-score): -0.679
[26]
  glycan array binding signal (z-score): -0.706
[27]
  glycan array binding signal (z-score): -0.334
[28]
  glycan array binding signal (z-score): -0.413
Neu5Ac(a2-6)Gal
  glycan array binding signal (z-score): -0.784
[29]
  glycan array binding signal (z-score): -0.458
Neu5Ac(a2-6)Gal(b1-4)Glc
  glycan array binding signal (z-score): -0.18
[30]
  glycan array binding signal (z-score): -0.371
[31]
  glycan array binding signal (z-score): -0.272
[32]
  glycan array binding signal (z-score): 0.455
[33]
  glycan array binding signal (z-score): -0.265
[34]
  glycan array binding signal (z-score): 0.377
[35]
  glycan array binding signal (z-score): -0.342
